Results on 92 compounds are retold here after PubChem BioAssay AID360 (National Center for Advancing Translational Sciences (NCATS), 2006).

The whole screen tested about 48,000 compounds, of which about 550 (1.1%) were called active. About 4% were inconclusive and are not listed. Rule as the data show it: active = potency below about 15 µM; inconclusive = mostly about 16 µM to 33 µM; inactive = weaker than that. The list shows a part of the results.
Potency is read from the fitted curve at half-maximal effect.

Chain of UniProt P04062 (P04062 whole entry, looked up): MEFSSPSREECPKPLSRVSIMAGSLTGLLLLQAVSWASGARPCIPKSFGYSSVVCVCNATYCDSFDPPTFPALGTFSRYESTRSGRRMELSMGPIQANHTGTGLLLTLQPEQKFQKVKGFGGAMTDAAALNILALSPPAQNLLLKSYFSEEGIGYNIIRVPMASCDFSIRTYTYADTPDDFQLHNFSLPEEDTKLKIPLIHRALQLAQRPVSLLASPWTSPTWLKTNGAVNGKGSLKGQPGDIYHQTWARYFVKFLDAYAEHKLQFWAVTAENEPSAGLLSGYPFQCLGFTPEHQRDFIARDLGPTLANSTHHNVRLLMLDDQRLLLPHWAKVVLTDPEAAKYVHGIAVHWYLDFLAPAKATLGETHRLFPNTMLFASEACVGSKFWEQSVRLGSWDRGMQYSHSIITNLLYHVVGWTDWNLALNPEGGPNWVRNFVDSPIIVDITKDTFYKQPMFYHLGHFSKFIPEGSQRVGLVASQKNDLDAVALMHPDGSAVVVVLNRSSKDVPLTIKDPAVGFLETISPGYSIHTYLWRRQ

The assay concerns the target Lysosomal acid glucosylceramidase (Homo sapiens) (UniProt P04062). Kind of assay: Glucocerebrosidase.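 Also: the screen sought inhibitors.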 Conditions: purified enzyme, resorufin glucoside fluorescence (screen aimed at inhibitors), 20 min. The essentials:
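Normal human glucocerebrosidase (0.2 nM final) was assayed with resorufin β-D-glucopyranoside (30 uM final) in 50mM citric acid/KH2PO4, 10mM sodium taurocholate, 0.01% tween-20, pH 5.9. Compounds were titrated; fluorescence (Ex 548, Em 600) read after 20 min at RT.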
As for `Cc1cc(=O)n(CC(C)C)c(O)c1C#N`, the Potency is inactive: > 76.9 µM.

In the case of `CN(CC(=O)N1CCCCCC1)S(=O)(=O)c1ccc(Br)s1`, the Potency is inactive: > 76.9 µM.

In the case of `Cc1nnc(SCc2cc(=O)n3[nH]cnc3n2)s1`, the Potency was inactive: > 76.9 µM.

With `CCOCCCNC(=O)CCNS(=O)(=O)c1ccc(C)cc1`, the Potency is inactive: > 76.9 µM.

In the case of `Cc1ccc(-n2c(C)cc(C)c(C#N)c2=O)cc1`, the Potency is inactive: > 76.9 µM.

Turning to `O=C(NCc1cccnc1)C1CCN(S(=O)(=O)N2CCC3(CC2)OCCO3)CC1`, the Potency was inactive: > 76.9 µM.

Take `O=C(Nc1cccc(C(=O)N2CCOCC2)c1)NC1CCCCC1`: the Potency is inactive: > 76.9 µM.

As for `CCCOC(=O)CN1C(=O)c2ccccc2C1=O`, the Potency was inactive: > 76.9 µM.

As for `CCOc1cccc(C2C(C(=O)c3ccc(C)o3)=C(O)C(=O)N2Cc2ccncc2)c1` (configuration not stated), the Potency was inactive: > 76.9 µM.

As for `COc1ccc2nc(C)cc(SCC(=O)O)c2c1`, the Potency was inactive: > 76.9 µM.

Take `COc1ccc(C(=O)c2oc3ccccc3c2N)cc1`: the Potency is inactive: > 76.9 µM.

As to `COc1cccc(NC(=O)NCc2cccn2C)c1`, the Potency was inactive: > 76.9 µM.

Consider `CC(=O)N1CCc2cc(S(=O)(=O)NC(C(=O)Nc3nc(C)cs3)C(C)C)ccc21` (configuration not stated), for which the Potency was inactive: > 76.9 µM.

Take `CCOC(=O)c1c(C)[nH]c(C(=O)COC(=O)c2ccccc2NC(=O)c2ccco2)c1C`: the Potency was inactive: > 76.9 µM.

Take `Cn1nnnc1SCC(=O)Nc1ccccc1Cl`: the Potency is inactive: > 76.9 µM.

For the compound `CCOC(=O)c1cnc2c(-c3ccccc3)c(C)nn2c1N`, the Potency is inactive: > 76.9 µM.

As for `COC(=O)CN(c1ccc2c(c1)OCO2)S(C)(=O)=O`, the Potency is inactive: > 76.9 µM.

Regarding `Cc1cc(C)c2c(c1)c(C)cc1nnc(SCC(=O)NCc3ccco3)n12`, the Potency was inactive: > 76.9 µM.

Regarding `Cc1csc(NC(=O)CSc2nnc(-c3ccncc3)n2C)n1`, the Potency was inactive: > 76.9 µM.

`COc1cc2cc(C(=O)Nc3ccccc3)c(N)nc2cc1OC`: the Potency was inactive: > 76.9 µM.

With `COc1cccc(-c2nnc(NC(=O)Cc3cccs3)s2)c1`, the Potency was inactive: > 76.9 µM.

On to `Cc1nn(-c2ccc(C(=O)O)cc2)c(=O)c2ccccc12`, for which the Potency is inactive: > 76.9 µM.

Consider `COc1ccc(S(=O)(=O)N(C)CC(=O)Nc2ccc(F)cc2)cc1`, for which the Potency was inactive: > 76.9 µM.

As for `COc1ccc(N(C)C(=O)CC2(CC(=O)O)CCCCC2)cc1`, the Potency is inactive: > 76.9 µM.

In the case of `CCc1ccc2[nH]c(=O)c(CN(Cc3ccc4c(c3)OCO4)Cc3nnnn3C3CCCC3)cc2c1`, the Potency entry is “inactive”.

For `CCCCn1nnnc1SCC(=O)Nc1ccc(C)cc1`, the Potency was inactive: > 76.9 µM.

Turning to `O=C(CC(SCCO)c1ccc2c(c1)OCO2)c1cccs1` (configuration not stated), the Potency is inactive: > 76.9 µM.

Regarding `COc1ccc(C(CC(=O)NCCCN2CCOCC2)NS(=O)(=O)c2ccc(C)cc2)cc1` (configuration not stated), the Potency is inactive: > 76.9 µM.

Take `COc1ccc2cc3cc(C(=O)NCc4ccccn4)oc3nc2c1`: the Potency is inactive: > 76.9 µM.

Turning to `CCN1C(=O)C(C(=O)Nc2ccc(OC)cc2)C2CC1(C)Oc1ccccc12` (configuration not stated), the Potency was inactive: > 76.9 µM.

As for `O=C(CN1C(=O)c2cccc3cccc1c23)N1CCN(c2ccc(F)cc2)CC1`, the Potency was inactive: > 76.9 µM.

For `COc1ccc(OC(=O)c2ccncc2)cc1`, the Potency was inactive: > 76.9 µM.

Consider `O=C(CCCCCN1C(=O)CCC1=O)Nc1ccc(Br)cc1F`, for which the Potency was inactive: > 76.9 µM.

`Cc1ccc(C(=O)CSc2nc(N)cc(=O)[nH]2)cc1`: the Potency was inactive: > 76.9 µM.

As for `Cn1c(CSc2ncccn2)nnc1SCC(=O)N1CCCc2ccccc21`, the Potency was inactive: > 76.9 µM.

With `Cc1cc(C)nc(Sc2c(C)nn(-c3ccccc3)c2C)n1`, the Potency was inactive: > 76.9 µM.

With `CCN1CCCC1CN(Cc1cc2cc(C)ccc2[nH]c1=O)C(=O)Nc1ccccc1OC` (configuration not stated), the Potency was inactive: > 76.9 µM.

As to `COC(=O)c1cccc(CSc2nnc(C)s2)c1`, the Potency was inactive: > 76.9 µM.

As to `COc1ccc(NC(=O)C2CCN(c3cc(-c4ccccc4)nc4ncnn34)CC2)cc1OC`, the Potency is inactive: > 76.9 µM.

`CCCC1(C(=O)OC)NC(c2ccc(OC)c(OC)c2)C2C(=O)N(c3ccc4c(c3)OCO4)C(=O)C21` (configuration not stated): the Potency is inactive: > 76.9 µM.

`CC1CN(CCc2ccccc2)c2nc3c(c(=O)[nH]c(=O)n3C)n2C1` (configuration not stated): the Potency is inactive: > 76.9 µM.

Take `CC(OC(=O)c1nn(C)c(=O)c2ccccc12)C(=O)NCc1ccc2c(c1)OCO2` (configuration not stated): the Potency is inactive: > 76.9 µM.

In the case of `Nc1ccc(C(=O)OCc2nc3ccccc3[nH]2)cc1`, the Potency was inactive: > 76.9 µM.

As for `O=C1CCCC2=C1C(c1cccs1)n1ncnc1N2` (configuration not stated), the Potency was inactive: > 76.9 µM.

Turning to `O=C(CSc1nc2ccccc2c(=O)n1CC1CCCO1)NCC1CCCO1` (configuration not stated), the Potency was inactive: > 76.9 µM.

Turning to `CN1CCN(c2ccc(NC(=O)c3ccc4c(c3)OCO4)cc2)CC1`, the Potency was inactive: > 76.9 µM.

`O=C(NCN1CCCCC1)c1cnccn1`: the Potency was inactive: > 76.9 µM.

As for `CCn1c(=Nc2ccc(N3CCOCC3)cc2)ccc2ccccc21`, the Potency is inactive: > 76.9 µM.

Turning to `C=C(C)c1cccc(C(C)(C)NC(=O)Nc2ccc3[nH]c(=O)[nH]c3c2)c1`, the Potency entry is “inactive”.

Consider `CCOc1ccc(NC(=O)C(CC)NC(=O)c2ccccc2CO)cc1` (configuration not stated), for which the Potency is inactive: > 76.9 µM.

As for `CCN1C(=O)/C(=C2/SC(C)=C(C)N2CC)SC1=S`, the Potency was inactive: > 76.9 µM.

As for `O=c1cc(CO)oc(C(Nc2ccccn2)c2ccsc2)c1O` (configuration not stated), the Potency is inactive: > 76.9 µM.

Turning to `COC(=O)c1[nH]c2cccc(C)c2c1NC(=O)CN1CCN(c2ccccc2OC)CC1`, the Potency was inactive: > 76.9 µM.

Turning to `CC(=O)Nc1c(C(=O)C2CC2)oc2ccccc12`, the Potency is inactive: > 76.9 µM.

`C(=C\c1ccco1)/C=N/n1cnnc1`: the Potency is inactive: > 76.9 µM.

In the case of `COC1(OC)N=C(N)C2(C#N)C(c3ccc(F)cc3)C12C#N` (configuration not stated), the Potency was inactive: > 76.9 µM.

On to `CC1=C(C(=O)OC2CCCCC2)C(c2cccnc2)n2ncnc2N1` (configuration not stated), for which the Potency is inactive: > 76.9 µM.

`CCOC(=O)C1CCN(C(=O)c2cc3cc4cc(OC)ccc4nc3o2)CC1`: the Potency was inactive: > 76.9 µM.

In the case of `N=c1c(C(=O)NCc2ccco2)cc2c(=O)n3ccccc3nc2n1Cc1ccccc1`, the Potency was inactive: > 76.9 µM.

Regarding `CC(=O)N1CCN(c2ccc(NC(=O)c3ccc4c(c3)OCO4)cc2)CC1`, the Potency result was “inactive”.

As for `COc1cc(NC(=O)c2ccco2)c(OC)cc1NC(=O)CSc1ncc(-c2ccc(F)cc2)[nH]1`, the Potency is inactive: > 76.9 µM.

On to `O=C(c1cc(-c2ccccc2)nc2ccccc12)N1CCN(c2ccccn2)CC1`, for which the Potency was inactive: > 76.9 µM.

Take `CC(=O)Nc1c(C(=O)O)oc2ccccc12`: the Potency was inactive: > 76.9 µM.

Take `CCS(=O)(=O)N1CCCC(C(=O)NC2CCC(C)CC2)C1` (configuration not stated): the Potency is inactive: > 76.9 µM.

As to `O=C(OCC(=O)N1CCOCC1)c1ccc[nH]c1=O`, the Potency was inactive: > 76.9 µM.

`COc1cc(C2C3C(=O)N(Cc4ccccc4)C(=O)C3ON2c2ccccc2)cc(OC)c1O` (configuration not stated): the Potency was inactive: > 76.9 µM.

Consider `CC1(C)CC(=O)C=C(N2CCN(C3=CC(=O)CC(C)(C)C3)CC2)C1`, for which the Potency is inactive: > 76.9 µM.

For `O=C1N(CN2CCN(c3cccc(Cl)c3)CC2)c2ccccc2C12OCCCO2`, the Potency was inactive: > 76.9 µM.

In the case of `O=C(O)c1ccc(Cl)cc1NC(=O)C1CCCO1` (configuration not stated), the Potency is inactive: > 76.9 µM.

As for `Cn1c(=N)n(CC(=O)O)c2ccccc21`, the Potency was inactive: > 76.9 µM.

Regarding `O=C(c1cc(-c2ccc(Cl)c(Cl)c2)on1)N1CCN(c2ccccc2)CC1`, the Potency is inactive: > 76.9 µM.

`CCOc1ccc(-c2c(C#N)c(N)nc3c2c(=O)n(C)c(=O)n3C)cc1OC`: the Potency was inactive: > 76.9 µM.

Consider `COc1ccc(CCNC(=O)c2cc(-c3ccc4c(c3)OCO4)on2)cc1OC`, for which the Potency was inactive: > 76.9 µM.

Take `CCc1nc(OCCN(CC)CC)c2oc3ccccc3c2n1`: the Potency is inactive: > 76.9 µM.

As for `CC(=O)Cn1c(CN2CC(C)CC(C)C2)nc2c1c(=O)n(C)c(=O)n2C` (configuration not stated), the Potency was inactive: > 76.9 µM.

On to `O=C(CNS(=O)(=O)c1cccs1)N1CCN(c2ccccn2)CC1`, for which the Potency was inactive: > 76.9 µM.

On to `O=C(CSc1ncn(-c2ccccc2)n1)Nc1nc2c(s1)CCCC2`, for which the Potency is inactive: > 76.9 µM.

Regarding `O=C(Nc1ccc2oc(-c3ccncc3)nc2c1)c1ccccc1F`, the Potency was inactive: > 76.9 µM.

Take `CCN1C(=O)c2cccc3c(NC(=O)C4CCCCC4)ccc1c23`: the Potency was inactive: > 76.9 µM.

`O=C(CCc1ccccc1)OCCN1CCOCC1`: the Potency was inactive: > 76.9 µM.

For `O=C(COc1ncnc2ccccc12)NCCCN1CCCC1=O`, the Potency is inactive: > 76.9 µM.

On to `CCCC(=O)Nc1ccccc1NC(=O)CN(C)S(=O)(=O)c1ccccc1`, for which the Potency is inactive: > 76.9 µM.

On to `NC(=O)c1nsc(C(=O)N(CC(=O)NCc2ccc3c(c2)OCO3)C2CCCC2)c1N`, for which the Potency is inactive: > 76.9 µM.

`O=C(CN1CCN(Cc2ccccc2)CC1)NC(=O)NCc1ccco1`: the Potency was inactive: > 76.9 µM.

Turning to `c1ccc2[nH]c(NCCN3CCOCC3)nc2c1`, the Potency is inactive: > 76.9 µM.

For the compound `O=C(NCC1CCCO1)C1CC(=O)N(C2CCCCCC2)C1` (configuration not stated), the Potency was inactive: > 76.9 µM.

`O=C(CCc1nc(-c2ccccc2)no1)NCc1ccco1`: the Potency is inactive: > 76.9 µM.

As for `C=C(C)CN1C(=O)C(O)(CC(=O)c2ccc3c(c2)OCCO3)c2ccccc21` (configuration not stated), the Potency was inactive: > 76.9 µM.

With `COC(=O)Cn1cc(C(=O)C2CC2)c2ccccc21`, the Potency was inactive: > 76.9 µM.

Turning to `Cc1nc2ccccc2c(=O)n1NC(=O)C1CCCCC1`, the Potency is inactive: > 76.9 µM.

With `O=C(c1cn(CC(=O)N2CCCC2)c2ccccc12)C1CCCCC1`, the Potency is inactive: > 76.9 µM.

For `CCOc1cc(-c2ccc(N)c(OCC)c2)ccc1N`, the Potency was inactive: > 76.9 µM.
